The supplement of paper PMC9446081
Among all 39,000 compounds or so, about 220 (0.56%) showed activity. The list shows a part of the results.

Test system: Escherichia coli K-12 BW25113
Test: relative growth (OD600 normalised to plate interquartile mean) (fraction); higher = less growth inhibition, active = 0.2 or less
Details: 50 µM; LB; incubation time: overnight (16-24 h)
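Further: static incubation at 37 °C against the wild-type strain, values averaged over two biological replicates.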

**Q.** Which relative growth does the source give for `CNC[C@@H]1Oc2c(NS(=O)(=O)c3cn(C)cn3)cccc2C(=O)N([C@@H](C)CO)C[C@@H]1C` here?
**A.** inactive: 0.926

**Q.** `NC1CCN(C(=O)Nc2nncs2)CC1` was tested. Which relative growth did it give?
**A.** inactive: 0.977

**Q.** `C[C@@H]1CCCCO[C@@H](CN(C)S(=O)(=O)c2ccccc2)[C@H](C)CN([C@H](C)CO)C(=O)c2cc(NC(=O)Nc3ccc(C(F)(F)F)cc3)ccc2O1` was tested. Which relative growth did it give?
**A.** inactive: 1.03

**Q.** `C[C@@H]1CN([C@H](C)CO)C(=O)c2cc(NS(C)(=O)=O)ccc2O[C@H]1CN(C)C(=O)NC1CCCCC1` was tested. Which relative growth did it give?
**A.** inactive: 0.999

**Q.** With `C[C@@H]1CCCCO[C@@H](CN(C)C(=O)Nc2cccc3ccccc23)[C@H](C)CN([C@@H](C)CO)C(=O)c2cc(NC(=O)c3ccncc3)ccc2O1` as the compound, how does the relative growth read?
**A.** inactive: 1

**Q.** With `COc1ccc(NC(=O)Nc2ccc3c(c2)CC(=O)N([C@H](C)CO)C[C@H](C)[C@@H](CN(C)C(=O)Nc2ccc(C(F)(F)F)cc2)O3)cc1` as the compound, how does the relative growth read?
**A.** inactive: 1

**Q.** With `C[C@H](CO)N1C[C@H](C)[C@H](CN(C)Cc2ccc(C(=O)Nc3ccccc3N)cc2)Oc2c(NC(=O)Nc3ccc4c(c3)OCO4)cccc2C1=O` as the compound, how does the relative growth read?
**A.** inactive: 1.02

**Q.** For `COc1ccc(S(=O)(=O)N(C)C[C@H]2OCCCC[C@@H](C)Oc3ccc(NC(=O)CCCCCC(=O)Nc4ccccc4N)cc3C(=O)N([C@H](C)CO)C[C@@H]2C)cc1`, which relative growth is on record?
**A.** inactive: 1.01

**Q.** For `C[C@@H]1O[C@H]2Oc3c(-c4ccc(O)c(O)c4)oc4cc(O)c(c(O)c4c3=O)-c3cc(ccc3O)/C=C\C(=O)OC[C@H]3O[C@@H](O[C@H]([C@H]1O)[C@H]2O)[C@H](O)[C@@H](O)[C@@H]3O`, which relative growth is on record?
**A.** inactive: 0.993

**Q.** `CN1CCN(C(=O)C[C@H]2C=C[C@H](NC(=O)c3ccc4c(c3)OCO4)[C@H](CO)O2)CC1` was tested. Which relative growth did it give?
**A.** inactive: 1

**Q.** `C[C@@H]1CN([C@H](C)CO)S(=O)(=O)c2ccc(-c3ccncc3)cc2O[C@H]1CN(C)Cc1ccc(Oc2ccccc2)cc1` was tested. Which relative growth did it give?
**A.** inactive: 1.03

**Q.** With `CCCCCCCCC(=O)O` as the compound, how does the relative growth read?
**A.** inactive: 0.881

**Q.** Which relative growth does the source give for `O=C(CCCCn1c(=O)[nH]c2ccccc2c1=O)N1CCN(c2ncccn2)CC1` here?
**A.** inactive: 1.01

**Q.** With `CCn1cc(-c2ccc3ccccc3n2)c(=S)c2ccccc21` as the compound, how does the relative growth read?
**A.** inactive: 0.999

**Q.** With `CN1CCN(C(=O)C[C@H]2C=C[C@H](NC(=O)Cc3ccccn3)[C@@H](CO)O2)CC1` as the compound, how does the relative growth read?
**A.** inactive: 1.03

**Q.** `CCS(=O)(=O)Nc1ccc2c(c1)C(=O)N(C)C[C@H](OC)[C@H](C)CN(Cc1ccccn1)[C@H](C)CO2` was tested. Which relative growth did it give?
**A.** inactive: 0.999

**Q.** How did the relative growth turn out when `CCOC(=O)c1sc(=NN)[nH]c1C` was run?
**A.** inactive: 1.02

**Q.** How did the relative growth turn out when `C[C@@H]1OC2=C(Cl)C(=O)N3CCC[C@H]3C[C@@]21O` was run?
**A.** inactive: 1.04

**Q.** For `COc1ccc(NC(=O)N(C)C[C@H]2Oc3ccc(NC(=O)Cn4cnnn4)cc3C(=O)N([C@H](C)CO)C[C@@H]2C)cc1`, which relative growth is on record?
**A.** inactive: 0.982

**Q.** Which relative growth does the source give for `CC(OC1OCCN(C(C)c2nc(=O)[nH][nH]2)C1c1ccc(F)cc1)c1cc(C(F)(F)F)cc(C(F)(F)F)c1` (stereo unspecified) here?
**A.** inactive: 1.07

**Q.** `COc1ccc(S(=O)(=O)Nc2ccc3c(c2)C(=O)N([C@@H](C)CO)C[C@H](C)[C@@H](CN(C)Cc2ccccc2)OCCCC[C@H](C)O3)cc1` was tested. Which relative growth did it give?
**A.** inactive: 1.01

**Q.** `CNC[C@H]1Oc2ccc(NS(=O)(=O)c3cn(C)cn3)cc2CC(=O)N([C@@H](C)CO)C[C@@H]1C` was tested. Which relative growth did it give?
**A.** inactive: 1.01

**Q.** How did the relative growth turn out when `CCCNC(=O)C[C@@H]1CC[C@H]2[C@H](COc3ccc(NS(=O)(=O)c4ccccc4C)cc3C(=O)N2C)O1` was run?
**A.** inactive: 0.994

**Q.** With `C[C@@H]1CN([C@@H](C)CO)C(=O)c2cc(NC(=O)Nc3ccc(F)cc3)ccc2O[C@@H](C)CCCCO[C@H]1CN(C)C(=O)Cc1ccccc1` as the compound, how does the relative growth read?
**A.** inactive: 0.999

**Q.** With `Cc1ccc(S(=O)(=O)Nc2ccc3c(c2)CC(=O)N([C@@H](C)CO)C[C@H](C)[C@@H](CN(C)S(=O)(=O)c2ccccc2)O3)cc1` as the compound, how does the relative growth read?
**A.** inactive: 0.975

**Q.** With `C[C@@H]1CN([C@@H](C)CO)C(=O)c2cccc(NC(=O)C3CCOCC3)c2O[C@H]1CN(C)S(=O)(=O)c1ccccc1` as the compound, how does the relative growth read?
**A.** inactive: 0.975

**Q.** For `C/C=C/c1ccc2c(c1)O[C@@H](CN(C)Cc1ccc(C(=O)O)cc1)[C@H](C)CN([C@H](C)CO)S2(=O)=O`, which relative growth is on record?
**A.** inactive: 1.01

**Q.** `C[C@H](CO)N1C[C@H](C)[C@H](CN(C)C(=O)c2ccc3c(c2)OCO3)Oc2ncc(C#CCN(C)C)cc2C1=O` was tested. Which relative growth did it give?
**A.** inactive: 1.01

**Q.** How did the relative growth turn out when `NCCSC12CC3CC(CC(C3)C1)C2` was run?
**A.** inactive: 0.9

**Q.** `FC(F)(F)c1cc(NC(=S)Nc2ccc(Br)cc2-c2nn[nH]n2)cc(C(F)(F)F)c1` was tested. Which relative growth did it give?
**A.** inactive: 0.915

**Q.** Which relative growth does the source give for `Cn1nc(-c2ccccn2)nc2c(=O)n(C)c(=O)nc1-2` here?
**A.** inactive: 0.933

**Q.** How did the relative growth turn out when `O=C(C[C@H]1C[C@H]2c3cc(NC(=O)c4ccc5c(c4)OCO5)ccc3O[C@H]2[C@H](CO)O1)NCCN1CCCCC1` was run?
**A.** inactive: 0.997

**Q.** With `COCCc1nnc(CCOC)n1N` as the compound, how does the relative growth read?
**A.** inactive: 0.987

**Q.** For `COc1ccc2c3c([nH]c2c1)[C@@H](CO)N(C[C@]13CCN(CC1)Cc1cc(on1)-c1ccccc1)C(=O)Nc1ccc(cc1)F`, which relative growth is on record?
**A.** inactive: 1.03

**Q.** `C[C@@H]1CN([C@@H](C)CO)C(=O)c2c(c3ccccc3n2C)-c2ccccc2CO[C@@H]1CN(C)Cc1ccccc1C(F)(F)F` was tested. Which relative growth did it give?
**A.** inactive: 1.03

**Q.** `C[C@H]1CN([C@@H](C)CO)C(=O)c2cc(NS(C)(=O)=O)ccc2O[C@@H]1CN(C)S(=O)(=O)c1ccc(F)cc1` was tested. Which relative growth did it give?
**A.** inactive: 0.989

**Q.** Which relative growth does the source give for `C[C@@H]1CN([C@@H](C)CO)C(=O)c2cccc(NC(=O)c3ccncc3)c2O[C@@H]1CN(C)Cc1ccc2c(c1)OCO2` here?
**A.** inactive: 1.02

**Q.** `Cc1noc(C)c1NC(=O)N(C)C[C@@H]1Oc2c(NC(=O)c3cnccn3)cccc2C(=O)N([C@H](C)CO)C[C@@H]1C` was tested. Which relative growth did it give?
**A.** inactive: 0.991

**Q.** For `CCCN(C)C[C@H]1OCCCC[C@@H](C)Oc2ccc(NS(=O)(=O)c3ccc(Cl)cc3)cc2C(=O)N([C@@H](C)CO)C[C@H]1C`, which relative growth is on record?
**A.** inactive: 0.95

**Q.** With `C[C@H](CO)N1C[C@H](C)[C@H](CN(C)C(=O)C2CCOCC2)Oc2cc(C3=CCCCC3)ccc2S1(=O)=O` as the compound, how does the relative growth read?
**A.** inactive: 0.988

**Q.** `C[C@H]1CN([C@@H](C)CO)C(=O)Cc2cc(NC(=O)CCC(F)(F)F)ccc2O[C@H]1CN(C)Cc1ccc(-c2ccccc2)cc1` was tested. Which relative growth did it give?
**A.** inactive: 0.972

**Q.** For `CC[C@@H](C)C(=O)O[C@H]1[C@H](OC(=O)CC(C)C)O[C@H](CO)[C@@H](O)[C@@H]1O`, which relative growth is on record?
**A.** inactive: 0.978

**Q.** For `CC(C)CC#Cc1ccc2c(c1)O[C@H](CN(C)C(=O)c1ccncc1)[C@H](C)CN([C@@H](C)CO)S2(=O)=O`, which relative growth is on record?
**A.** inactive: 0.982

**Q.** How did the relative growth turn out when `C[C@@H]1CCCCO[C@H](CN(C)Cc2ccc(C(=O)Nc3ccccc3N)cc2)[C@@H](C)CN([C@@H](C)CO)C(=O)c2cc(NS(=O)(=O)c3ccc(Cl)cc3)ccc2O1` was run?
**A.** inactive: 0.99

**Q.** With `CNC[C@H]1OCCCC[C@@H](C)Oc2ccc(NC(=O)Nc3cccc4ccccc34)cc2C(=O)N([C@H](C)CO)C[C@@H]1C` as the compound, how does the relative growth read?
**A.** inactive: 0.978

**Q.** How did the relative growth turn out when `C[C@H](C(=O)N(C)C[C@H]1OCc2ccccc2-c2c(n(C)c3ccccc23)C(=O)N([C@H](C)CO)C[C@H]1C)c1ccccc1` was run?
**A.** inactive: 0.983

**Q.** With `O=C(NO)c1ccc(-c2cn(CC[C@@H]3OC(=O)[C@H](Cc4ccccc4)N4CC5=CC(=O)[C@H](C6CC6)[C@H]5[C@H]34)nn2)s1` as the compound, how does the relative growth read?
**A.** inactive: 0.995

**Q.** `Cl.O=c1n(CCCN2CCN(c3cccc(Cl)c3)CC2)nc2ccccn12` was tested. Which relative growth did it give?
**A.** inactive: 1.06

**Q.** With `COC(=O)c1c2oc(c1C(=O)OC)C(=O)N[C@H](Cc1ccccc1)Cn1cc(nn1)[C@H](Cc1ccccc1)NC(=O)N[C@@H](CO)CC2` as the compound, how does the relative growth read?
**A.** inactive: 0.992

**Q.** For `Cc1ccc(S(=O)(=O)N(C)C[C@@H]2Oc3ccc(NC(=O)CCN4CCOCC4)cc3C(=O)N([C@@H](C)CO)C[C@@H]2C)cc1`, which relative growth is on record?
**A.** inactive: 0.981

**Q.** `Cc1ccc(S(=O)(=O)Nc2ccc3c(c2)C(=O)N([C@@H](C)CO)C[C@H](C)[C@@H](CN(C)Cc2ccc(-c4ccccc4)cc2)O3)cc1` was tested. Which relative growth did it give?
**A.** inactive: 0.982

**Q.** `C[C@@H]1CCCCO[C@@H](CN(C)Cc2ccc3c(c2)OCO3)[C@@H](C)CN([C@H](C)CO)C(=O)c2cc(NC(=O)Nc3ccc(C(F)(F)F)cc3)ccc2O1` was tested. Which relative growth did it give?
**A.** inactive: 1.01

**Q.** `Cc1noc(C)c1NC(=O)N(C)C[C@H]1Oc2ncc(C#CCN(C)C)cc2C(=O)N([C@H](C)CO)C[C@@H]1C` was tested. Which relative growth did it give?
**A.** inactive: 1

**Q.** `C[C@@H]1CN([C@@H](C)CO)C(=O)c2cc(NC(=O)C3CCCCC3)ccc2O[C@@H](C)CCCCO[C@H]1CN(C)C(=O)Nc1ccc2c(c1)OCO2` was tested. Which relative growth did it give?
**A.** inactive: 1.01

**Q.** For `C[C@H]1CN([C@@H](C)CO)C(=O)c2cccc(NS(=O)(=O)c3cn(C)cn3)c2O[C@@H]1CN(C)C(=O)NC1CCCCC1`, which relative growth is on record?
**A.** inactive: 0.974

**Q.** How did the relative growth turn out when `C[C@@H]1CN([C@@H](C)CO)C(=O)c2cc(NC(=O)Cc3cn(C)c4ccccc34)ccc2O[C@H]1CN(C)CC1CCCCC1` was run?
**A.** inactive: 0.988

**Q.** Which relative growth does the source give for `CO[C@H]1CN(C)C(=O)c2ccc(NS(=O)(=O)CC(F)(F)F)cc2OC[C@H](C)N(C(=O)c2ccc3c(c2)OCO3)C[C@H]1C` here?
**A.** inactive: 1.03

**Q.** For `Cc1ccc(S(=O)(=O)N[C@H](C(=O)NCCn2cc(CCC(=O)NO)nn2)C(C)C)cc1`, which relative growth is on record?
**A.** inactive: 1.03

**Q.** With `Fc1ccc(-c2nc3ccc4ccccc4c3c3c2CCC3)cc1` as the compound, how does the relative growth read?
**A.** inactive: 1.01

**Q.** How did the relative growth turn out when `COc1ccc(NC(=O)N(C)C[C@H]2Oc3c(NC(=O)Nc4ccc(C(F)(F)F)cc4)cccc3C(=O)N([C@H](C)CO)C[C@H]2C)cc1` was run?
**A.** inactive: 0.892

**Q.** For `CN(C)Cc1cn(CC[C@H]2CC[C@@H](NC(=O)Cc3cccnc3)[C@@H](CO)O2)nn1`, which relative growth is on record?
**A.** inactive: 1.04
